# Experimental data as given in the supplement of paper PMC8728848.
# The list shows a part of the results.
# B1: MIC1 (Neospora caninum), Q8WRS0 (protein)
# chain: AGAKTYGEASQPSASARSLQGALDTWCQEVFKKLCDDGYSKMCIPANQVVARQGLGRKDQQKLVWRCYDSAAFLAEGDENNVLSCVDDCGVSIPCPGGVDRDNSTHATRHDELSQLIKEGVVRYCSGFQAAANSYCNKRYPGTVARKSKGFGHKEPVKWRCYKPESLLFSVFSECVSNCGTTWSCPGGRLGTATNLDKKHFTDESGILQALTSVPKACPVGLVCLPRDQNPPACLDDNGNVPE
# Tests used:
# Experiment in all cases: glycan array binding signal (z-score within array); higher = stronger binding
# Settings in all cases: glycan notation: IUPAC condensed, linker removed
# [1] = target: Fuc(a1-3)[Gal(b1-4)]GlcNAc(b1-3)Gal(b1-4)Glc
# In short: (§1)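 The Consortium for Functional Glycomics database supplied 3228 glycan arrays, of which those lacking an available protein sequence were dropped. The binding signal, a within-array Z-score, was averaged across arrays of the same protein sequence and across linkers. Negative scores can be read as non-binding.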
# [2] = target: Gal(b1-3)GalNAc(b1-4)[Neu5Ac(a2-3)]Gal(b1-4)Glc
# In short: as §1
# [3] = target: Gal(b1-3)GalNAc(b1-4)[Neu5Gc(a2-3)]Gal(b1-4)Glc
# In short: as §1
# [4] = target: Gal(b1-3)GlcNAc(b1-3)Gal(b1-4)Glc
# In short: as §1
# [5] = target: Gal(b1-3)GlcNAc(b1-3)[Gal(b1-4)GlcNAc(b1-6)]Gal(b1-4)Glc
# In short: as §1
# [6] = target: Gal(b1-3)[Neu5Ac(a2-6)]GlcNAc(b1-3)Gal(b1-4)Glc
# In short: as §1
# Gal(b1-4)GlcNAc = target: Gal(b1-4)GlcNAc
# In short: as §1
# [7] = target: Gal(b1-4)GlcNAc(b1-2)Man(a1-3)[Gal(b1-4)GlcNAc(b1-2)Man(a1-6)]Man(b1-4)GlcNAc(b1-4)GlcNAc
# In short: as §1
# [8] = target: Gal(b1-4)GlcNAc(b1-3)Gal(b1-4)Glc
# In short: as §1
# Neu(a2-3)Gal(b1-4)Glc = target: Neu(a2-3)Gal(b1-4)Glc
# In short: as §1
# [9] = target: Neu(a2-3)Gal(b1-4)GlcNAc(b1-3)Gal(b1-4)[Fuc(a1-3)]GlcNAc(b1-3)Gal(b1-4)Glc
# In short: as §1
# [10] = target: Neu(a2-3)Gal(b1-4)GlcNAc6S(b1-3)Gal(b1-4)Glc
# In short: as §1
# [11] = target: Neu(a2-3)Gal(b1-4)[Fuc(a1-3)]GlcNAc(b1-3)Gal(b1-4)Glc
# In short: as §1
# [12] = target: Neu(a2-3)Gal(b1-4)[Fuc(a1-3)]GlcNAc6S(b1-3)Gal(b1-4)Glc
# In short: as §1
# [13] = target: Neu(a2-3)Gal6S(b1-4)[Fuc(a1-3)]GlcN(b1-3)Gal(b1-4)Glc
# In short: as §1
# Neu(a2-6)Gal(b1-4)Glc = target: Neu(a2-6)Gal(b1-4)Glc
# In short: as §1
# [14] = target: Neu4Ac5Ac(a2-3)Gal(b1-4)Glc
# In short: as §1
# Neu5Ac(a2-3)Gal = target: Neu5Ac(a2-3)Gal
# In short: as §1
# [15] = target: Neu5Ac(a2-3)Gal(b1-3)GalNAc(b1-4)Gal(b1-4)Glc
# In short: as §1
# [16] = target: Neu5Ac(a2-3)Gal(b1-3)GalNAc(b1-4)[Neu5Ac(a2-3)]Gal(b1-4)Glc
# In short: as §1
# [17] = target: Neu5Ac(a2-3)Gal(b1-3)GalNAc(b1-4)[Neu5Ac(a2-8)Neu5Ac(a2-3)]Gal(b1-4)Glc
# In short: as §1
# [18] = target: Neu5Ac(a2-3)Gal(b1-3)GlcNAc
# In short: as §1
# [19] = target: Neu5Ac(a2-3)Gal(b1-3)GlcNAc(b1-3)Gal(b1-4)Glc
# In short: as §1
# [20] = target: Neu5Ac(a2-3)Gal(b1-3)GlcNAc(b1-3)[Fuc(a1-3)[Gal(b1-4)]GlcNAc(b1-6)]Gal(b1-4)Glc
# In short: as §1
# [21] = target: Neu5Ac(a2-3)Gal(b1-3)[Fuc(a1-4)]GlcNAc
# In short: as §1
# [22] = target: Neu5Ac(a2-3)Gal(b1-3)[Fuc(a1-4)]GlcNAc(b1-3)Gal(b1-4)Glc
# In short: as §1
# [23] = target: Neu5Ac(a2-3)Gal(b1-3)[Neu5Ac(a2-6)]GalNAc
# In short: as §1
# [24] = target: Neu5Ac(a2-3)Gal(b1-3)[Neu5Ac(a2-6)]GlcNAc(b1-3)Gal(b1-4)Glc
# In short: as §1
# Neu5Ac(a2-3)Gal(b1-4)Glc = target: Neu5Ac(a2-3)Gal(b1-4)Glc
# In short: as §1
# [25] = target: Neu5Ac(a2-3)Gal(b1-4)GlcNAc
# In short: as §1
# [26] = target: Neu5Ac(a2-3)Gal(b1-4)GlcNAc(b1-2)Man(a1-3)[Neu5Ac(a2-3)Gal(b1-4)GlcNAc(b1-2)Man(a1-6)]Man(b1-4)GlcNAc(b1-4)[Fuc(a1-6)]GlcNAc
# In short: as §1
# [27] = target: Neu5Ac(a2-3)Gal(b1-4)GlcNAc(b1-3)Gal(b1-4)Glc
# In short: as §1
# [28] = target: Neu5Ac(a2-3)Gal(b1-4)GlcNAc6S(b1-3)Gal6S(b1-3)GlcNAc6S
# In short: as §1
# [29] = target: Neu5Ac(a2-3)Gal(b1-4)[Fuc(a1-3)]GlcNAc
# In short: as §1
# [30] = target: Neu5Ac(a2-3)Gal(b1-4)[Fuc(a1-3)]GlcNAc(b1-3)Gal
# In short: as §1
# [31] = target: Neu5Ac(a2-3)Gal(b1-4)[Fuc(a1-3)]GlcNAc(b1-3)Gal(b1-4)Glc
# In short: as §1
binder,measurement,setting,value
B1,glycan array binding signal (z-score),[1],-0.441
same,glycan array binding signal (z-score),[2],-0.344
same,glycan array binding signal (z-score),[3],-0.063
same,glycan array binding signal (z-score),[4],-0.441
same,glycan array binding signal (z-score),[5],-0.441
same,glycan array binding signal (z-score),[6],-0.441
same,glycan array binding signal (z-score),Gal(b1-4)GlcNAc,-0.441
same,glycan array binding signal (z-score),[7],-0.441
same,glycan array binding signal (z-score),[8],-0.441
same,glycan array binding signal (z-score),Neu(a2-3)Gal(b1-4)Glc,-0.422
same,glycan array binding signal (z-score),[9],-0.241
same,glycan array binding signal (z-score),[10],-0.441
same,glycan array binding signal (z-score),[11],-0.441
same,glycan array binding signal (z-score),[12],-0.428
same,glycan array binding signal (z-score),[13],-0.441
same,glycan array binding signal (z-score),Neu(a2-6)Gal(b1-4)Glc,-0.441
same,glycan array binding signal (z-score),[14],-0.441
same,glycan array binding signal (z-score),Neu5Ac(a2-3)Gal,-0.394
same,glycan array binding signal (z-score),[15],-0.42
same,glycan array binding signal (z-score),[16],0.307
same,glycan array binding signal (z-score),[17],-0.006
same,glycan array binding signal (z-score),[18],0.479
same,glycan array binding signal (z-score),[19],-0.1
same,glycan array binding signal (z-score),[20],-0.205
same,glycan array binding signal (z-score),[21],0.955
same,glycan array binding signal (z-score),[22],-0.105
same,glycan array binding signal (z-score),[23],0.562
same,glycan array binding signal (z-score),[24],-0.055
same,glycan array binding signal (z-score),Neu5Ac(a2-3)Gal(b1-4)Glc,-0.14
same,glycan array binding signal (z-score),[25],0.713
same,glycan array binding signal (z-score),[26],0.098
same,glycan array binding signal (z-score),[27],-0.299
same,glycan array binding signal (z-score),[28],2.07
same,glycan array binding signal (z-score),[29],0.85
same,glycan array binding signal (z-score),[30],-0.426
same,glycan array binding signal (z-score),[31],-0.359
